Assay results taken from PubChem BioAssay AID1508623 (National Center for Advancing Translational Sciences (NCATS), 2021).
About 450 (0.94%) of roughly 48,000 compounds were called active. About 19% were inconclusive and are not listed. Calls come from the whole dose curve; as a rule, active = well fitted inhibition curve with a large enough effect; inconclusive = small, poorly fitted or top-dose-only effect; inactive = no such curve, though single readings can be large or run the other way. Some of the results follow.

assay: Primary qHTS for Identification of Small Molecule Inhibitors of Huntingtin Promoter Activity; settings: HEK293 HTT promoter firefly luciferase reporter (activity 0% = vehicle and -100% = no light), 24 h; series mostly up to 57.5 µM; activity change, negative = inhibition: at the top concentration; note: nearly all actives have a fitted effect of over 50% in size
How it was run: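 HEK293 cells carrying firefly luciferase reporters were seeded at 2,500 per well in Opti-MEM and cultured for 24 h. They were then treated with compounds at up to 57.5 uM final for 24 h at 37 degrees C before Dual-Glo luminescence readout.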

Activity change, negative = inhibition, inactive:
CC(=O)N1CCc2cc(S(=O)(=O)NC(Cc3ccccc3)C(=O)NCc3ccccc3)ccc21 (centres undefined) -17.6%, COCc1nc2ccccc2n1Cc1ccc(C(C)(C)C)cc1 1.31%, Cc1ccc(Cn2c(=O)n(Cc3ccccc3)c(=O)c3oc4ccccc4c32)cc1 -17.5%, COc1ccc2[nH]c3c(c2c1)CCN(C(=O)CCC1CCCC1)C3c1ccc(F)cc1 (centres undefined) -25.1%, O=C(CC1N=C2c3ccccc3N=C(SCc3ccc(F)cc3)N2C1=O)NCCc1ccccc1 (centres undefined) -6.61%, Cc1cccc(Cn2c(-c3ccccc3)nc3ccccc32)c1 1.89%, O=C(CSc1nccn1-c1ccc(F)cc1)Nc1nc2ccccc2s1 -10.7%, Cc1ccc(-c2cnc(C3CC3)o2)cc1S(=O)(=O)Nc1cccc(C)c1C -3.05%, CC(C)(C)OC(=O)N1CCC(c2c(C(=O)N3CCN(c4ccccn4)CC3)cnn2-c2ccc(F)cc2F)CC1 -2.18%, COc1ccc(NC(=O)C2CCCN(S(=O)(=O)c3c(C)[nH]c(=O)[nH]c3=O)C2)cc1OC (centres undefined) -16%, CCN1CCN(c2csc3ccc(Br)cc3c2=O)CC1 13.7%, CCn1c(=O)c2cc(C(=O)NCc3cc(OC)ccc3OC)sc2c2ccccc21 -22.2%, Cc1ccc(NC(=O)C2CCCN(c3ncnc4c3nc3n4CCCCC3)C2)c(Br)c1 (centres undefined) -8.86% [at 11.5 µM], CC(C)(C)c1ccc(C(=O)NCC(=O)OCc2cc(=O)n3nc(C4CC4)sc3n2)cc1 -27.7%, COc1ccc(Cl)cc1NCc1nnc2n1CCCCC2 -11.7%, COc1ccc(NC(=O)c2oc3ccccc3c2NC(=O)c2cc(=O)c3cc(Cl)ccc3o2)cc1 7.24%, COC(=O)c1c(NC(=O)c2ccc(OC)cc2OC)sc2c1CCCCC2 -6.34% [at 11.5 µM], CCOc1ccc2nc(NC(=O)c3nc(SCc4ccccc4F)ncc3Cl)sc2c1 -9.18%, Cc1cc(C)cc(-n2c(SCC(=O)Nc3ccccc3)nc3c(oc4ccccc43)c2=O)c1 -14.5%, COc1ccc2c(CNCc3cccs3)c(C(=O)O)n(Cc3ccc(F)cc3)c2c1 -25.9%, CC(C)Cn1cc(NC(=O)N2CCN(c3ccc(F)cc3)CC2)c2ccccc2c1=O -6.45%, CC(=O)c1ccc(NC(=O)CSC2=Nc3ccccc3N=C(c3ccc(F)cc3)C2)cc1 -2.39%, CCCCn1c(=O)n(CC2CCC(C(=O)NCCCOC)CC2)c(=O)c2sccc21 (centres undefined) 5.67%, COc1cc(OC)cc(-c2nc3nc(C)c(CCC(=O)Nc4cc(C)cc(C)c4)c(C)n3n2)c1 -11.5%, CCC(Cc1ccccc1)NC(=O)Cn1nc(C)n2c(cc3occc32)c1=O (centres undefined) -10.3%, O=C(NCc1ccc(Cl)cc1)C1CCN(S(=O)(=O)c2cccc3nonc23)CC1 -17%, CC(=O)c1cccc(NC(=O)c2sc(-n3nc(C)c(Cc4ccccc4)c3C)nc2C)c1 -26.5%, CCCS(=O)(=O)N1CC(=O)N(c2cccc(Cl)c2)C(C)(C(=O)NC2CCCCC2)C1 (centres undefined) -3.91%, CCCCN(C)CC(O)Cn1cc(/C=C/C(=O)c2ccc(Br)cc2)c2ccccc21 (centres undefined) -17%, Cc1cc(=O)[nH]c2nnc(SCc3ccc(Cl)cc3Cl)n12 -13.5%, Cc1ccc2c(CNC3CCCCC3)c(C(=O)O)n(Cc3ccc(F)cc3)c2c1 -14.8%, COCCNC(=O)c1ccc2c(c1)N(Cc1cc(C)ccc1C)C(=O)c1ccccc1S2=O (centres undefined) -19.4%, Cc1ccc2nc(COc3cccc(NC(=O)Nc4ccc(C)c(Cl)c4)c3)cc(=O)n2c1 28.4%, O=C(Cn1c(SCc2ccc(F)cc2)nc2cccnc21)Nc1ccccc1F 2.41%, COc1cccc2cc(-c3nc(-c4ccccc4F)no3)c(=O)oc12 15.3%, CC(=O)OCC(=O)[C@@]1(O)[C@H](C)C[C@H]2[C@@H]3C=C(C)C4=Cc5c(cnn5-c5ccccc5)C[C@]4(C)[C@@H]3[C@@H](O)C[C@@]21C -19.7%, O=C(Nc1ccc(F)c(Cl)c1)c1ccc2c(Cl)c3c(nc2c1)CCCC3 -11.7%, CCOc1ccccc1CNC(=O)c1cc2c(=O)n(Cc3cccnc3)ccc2nc1C -16.6%, Cc1ccc(CNC(=O)C2CCN(S(=O)(=O)c3cccc4nonc34)CC2)cc1 -6.88%, COc1ccccc1NC(=O)CSc1nnc(NC(=O)NC2CCCCC2)s1 -2.25%, Cc1nn(-c2ccccc2)c2c1cc1c(=O)[nH]c(=O)nc-1n2-c1cccc(Cl)c1 -6.86%, COc1ccccc1/C=C/c1nc(C#N)c(N2CCN(C)CC2)o1 5.74%, Cc1cc(=O)c2cc(C(=O)Nc3ccc(C)c(C)c3)ccc2[nH]1 23.1%, CCc1ccc(NCc2cc3cc4c(cc3n(CC(=O)Nc3ccccc3OC)c2=O)OCCO4)cc1 -13%, Cc1cc(NC(=O)Nc2nnc(N(C)C3CCCCC3)s2)ccc1Br -9.19%, CN1C(=O)c2ccccc2C1=O 8.33% [at 116 µM], Cc1cccc(NC(=O)Cn2ncc3c4ccccc4n(Cc4ccccc4)c3c2=O)c1C -2.99%, Cc1ccc(S(=O)(=O)CCC(=O)Nc2ccc(OC(F)(F)F)cc2)cc1 -12.1%, CCOC(=O)O[C@]1(C(=O)OCCl)CC[C@H]2[C@@H]3CCC4=CC(=O)C=C[C@]4(C)[C@H]3[C@@H](O)C[C@@]21C 9.78%, CCc1ccccc1NC(=O)Cn1c(=O)n(CCCCCC(=O)NCc2ccc(C)cc2)c(=O)c2sccc21 -23.2%, CCC(Sc1nc2ccncc2[nH]1)C(=O)Nc1cc(Cl)ccc1C (centres undefined) -26.2%, COc1cc(Cl)c(C)cc1NC(=O)CSc1nc2c(c(=O)[nH]1)CCC2 -13.9%, CCc1ccc(S(=O)(=O)c2nnn3c2nc(N2CCOCC2)c2sccc23)cc1 1.11%, Cc1ccc(N2CC(c3nc(-c4ccc(Cl)cc4)no3)CC2=O)cc1F (centres undefined) 12.9%, Cc1cc(N2CCC(C(=O)Nc3ccc(F)cc3C)CC2)n2nc(C)c(-c3ccc(Cl)cc3)c2n1 8.04%, Cc1cc(-c2ccccc2)n2nc(-c3ccc(Cl)cc3)cc2n1 -6.85%, Cc1cc(Br)ccc1NC(=O)C1CCCN(S(=O)(=O)c2cccc3nonc23)C1 (centres undefined) -29.2%, COc1ccc2cc3cc(C(=O)Nc4cc(C)c(Cl)cc4OC)oc3nc2c1 -1.96%, COc1ccc(NC(=O)CSc2oc(-c3ccc(F)cc3)nc2S(=O)(=O)c2ccc(C)cc2)c(OC)c1 -7.12%, COc1cc(Cl)c(NC(=O)c2cc(S(=O)(=O)N3CCCCC3)c[nH]2)c(OC)c1 -19.6%, Cc1sc2c(c1C)c(=O)n(-c1ccc(Cl)cc1)c(=O)n2Cc1cc(=O)n2cc(Br)ccc2n1 -0.0974%, CCOC(=O)c1c(S(=O)(=O)N2CCCC(C(=O)NCc3ccccc3Cl)C2)c(C)n(C)c1C (centres undefined) -18.1%, CCOc1ccccc1NC(=O)CSc1nc2c(sc3ccccc32)c(=O)n1CCCC(=O)NC1CCCC1 -25.2%, COc1cc(NC(=O)C2CCN(S(=O)(=O)c3ccc4c(c3)CCCC(=O)N4)CC2)cc(OC)c1 -16.4%, COc1cccc(CNC(=O)c2ccc(CNS(=O)(=O)c3ccc(C)cc3)cc2)c1 -13.5%, CCN(c1ccccc1)S(=O)(=O)c1nnc(NC(=O)c2ccccc2)s1 -15.5%, O=C(Nc1ccccc1)N(Cc1c[nH]c2ccccc12)C1CCCCCC1 28.1%, Cc1cccc(N2CCN(C(=O)c3cnn(-c4ccccc4Cl)c3C3CCN(C(=O)OC(C)(C)C)CC3)CC2C)c1 (centres undefined) -3.88%, COc1ccc(S(=O)(=O)NCCc2sc(-c3cccnc3)nc2C)c(F)c1 -8.64%, CCc1ccc(C2c3c(oc4ccc(F)cc4c3=O)C(=O)N2CCc2ccc(OC)cc2)cc1 (centres undefined) -11.6%, COc1ccc(CNCCCSc2nnnn2-c2ccccc2)cc1 -18.5%, CC1CCc2c(sc3nnn(CCCCOc4ccc(Cl)cc4)c(=O)c23)C1 (centres undefined) 4.98%, Cc1ccc(CNC(=O)Cn2c(=O)ccc3cc(S(=O)(=O)N4CCC(C)CC4)ccc32)cc1 -23.6%, COc1ccc(-c2cc(C(=O)NC(C)c3ccccc3)c3cc(C(C)C)ccc3n2)cc1 (centres undefined) -13.6%, CCOC(=O)c1c(NC(=O)c2cc(OCC)c(OCC)c(OCC)c2)sc2c1CCCCC2 -1.11%, CCN(CC)CCNC(=O)C(=O)NCC(c1cccnc1)N1CCN(c2ccc(F)cc2)CC1 (centres undefined) -9.18%, O=C(Nc1ccccc1C(F)(F)F)c1cc(-c2ccc3c(c2)OCCO3)on1 74.6%, Cc1c(Cl)cccc1NC(=O)CNS(=O)(=O)c1cccs1 5.14%, Cc1ccc(C2CCN(C(=O)Nc3ccc(Cl)cc3)C2)cc1 (centres undefined) 15.8%, Cc1cc(=O)[nH]c2nnc(SCc3c(F)cccc3Cl)n12 -19.7%, CCOc1ccc2c(c1)sc1nc(=O)n(-c3ccc(Cl)c(Cl)c3)c(=O)n12 29.1%, CCOC(=O)CCn1cnc2onc(-c3cc(OC)ccc3Cl)c2c1=O -23.5%, COc1ccc(N(CC(C)C)S(=O)(=O)c2nnc(NC(=O)c3cccs3)s2)cc1 -8.7%, CCCCCCCCCCCCCCC[C@H](O)[C@@H](N)CO 3.29%, Cc1cccc(NC(=O)c2ccc3c(O)c(S(=O)(=O)c4ccccc4)c(=O)[nH]c3c2)c1C -4.85%, O=C(Nc1ccc2nc(SCC(=O)N3CCc4ccccc43)sc2c1)c1cccc(F)c1 -27.1%, COc1ccc(Cl)cc1NC(=O)CSc1nc2ccccc2c2nc(-c3ccccc3)nn12 5.42%, Cc1ccccc1-c1nc(CS(=O)(=O)CC(=O)NCCc2ccccc2)c(C)o1 -15.1%, Clc1cc(Cl)cc(CNc2ncncc2-c2ccc3c(c2)OCO3)c1 -33.1%, CS(=O)(=O)NCC(c1ccco1)N1CCN(c2ccc(F)cc2)CC1 (centres undefined) -6.69%, COCCNC(=O)CCn1c(=O)c2cc(OC)c(OC)cc2n(CC(=O)Nc2ccccc2C)c1=O -18%, O=S(=O)(c1ccc(-c2cc(C(F)(F)F)on2)s1)N1CCN(c2ccccc2)CC1 9.25%, COc1ccc(S(=O)(=O)N2CCN(Cc3ccc4c(c3)OCO4)CC2)cc1C -22.6%, CCOC(=O)c1cnc2c(Cl)cc(Cl)cc2c1Nc1cc(C(=O)O)ccc1C -15.9%
